Results as given in article PMC10670248.
No constants are given. Whether binding was seen depends on the method and setting. In cells and extracts the contact can be indirect. Some results given as binding are weak or reduced against the parent protein; the word gives no strength. For some of these results: Where a sequence is shown, tags or fusion partners need not be part of it. Each block holds one molecule with its values, some of them ahead of it.

Sequences of proteins named here, by UniProt entry; tags and fusion partners are left off.
UniProt Q9NS66: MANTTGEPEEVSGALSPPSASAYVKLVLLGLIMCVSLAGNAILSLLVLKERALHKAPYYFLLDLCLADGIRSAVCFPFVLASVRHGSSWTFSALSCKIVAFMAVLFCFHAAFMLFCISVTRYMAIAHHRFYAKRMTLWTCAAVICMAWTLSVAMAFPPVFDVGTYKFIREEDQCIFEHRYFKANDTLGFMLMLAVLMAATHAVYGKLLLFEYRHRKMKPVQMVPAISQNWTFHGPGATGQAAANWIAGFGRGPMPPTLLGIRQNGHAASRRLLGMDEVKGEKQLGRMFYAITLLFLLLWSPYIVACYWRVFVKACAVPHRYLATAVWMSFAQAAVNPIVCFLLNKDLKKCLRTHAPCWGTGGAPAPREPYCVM
UniProt Q9NS67: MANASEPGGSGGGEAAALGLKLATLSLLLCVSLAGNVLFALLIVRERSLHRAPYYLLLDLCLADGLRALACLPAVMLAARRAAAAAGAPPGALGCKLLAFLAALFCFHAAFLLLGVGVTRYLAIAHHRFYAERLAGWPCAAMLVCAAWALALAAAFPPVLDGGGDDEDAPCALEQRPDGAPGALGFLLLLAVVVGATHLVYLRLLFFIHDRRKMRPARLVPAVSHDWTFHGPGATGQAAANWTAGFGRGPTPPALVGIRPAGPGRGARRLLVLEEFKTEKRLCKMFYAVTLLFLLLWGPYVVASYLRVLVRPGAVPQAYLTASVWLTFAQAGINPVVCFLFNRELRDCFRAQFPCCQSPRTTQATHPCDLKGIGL
UniProt P60893: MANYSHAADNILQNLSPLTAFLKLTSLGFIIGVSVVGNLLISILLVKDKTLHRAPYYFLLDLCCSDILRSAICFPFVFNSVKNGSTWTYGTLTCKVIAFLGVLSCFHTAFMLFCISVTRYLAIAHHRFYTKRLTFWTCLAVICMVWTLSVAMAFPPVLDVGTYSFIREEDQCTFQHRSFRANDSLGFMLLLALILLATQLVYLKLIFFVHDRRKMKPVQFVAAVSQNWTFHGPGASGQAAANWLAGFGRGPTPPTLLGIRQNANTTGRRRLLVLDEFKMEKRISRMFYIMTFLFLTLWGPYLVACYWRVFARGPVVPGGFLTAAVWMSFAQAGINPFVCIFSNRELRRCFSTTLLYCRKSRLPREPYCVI
UniProt O43491: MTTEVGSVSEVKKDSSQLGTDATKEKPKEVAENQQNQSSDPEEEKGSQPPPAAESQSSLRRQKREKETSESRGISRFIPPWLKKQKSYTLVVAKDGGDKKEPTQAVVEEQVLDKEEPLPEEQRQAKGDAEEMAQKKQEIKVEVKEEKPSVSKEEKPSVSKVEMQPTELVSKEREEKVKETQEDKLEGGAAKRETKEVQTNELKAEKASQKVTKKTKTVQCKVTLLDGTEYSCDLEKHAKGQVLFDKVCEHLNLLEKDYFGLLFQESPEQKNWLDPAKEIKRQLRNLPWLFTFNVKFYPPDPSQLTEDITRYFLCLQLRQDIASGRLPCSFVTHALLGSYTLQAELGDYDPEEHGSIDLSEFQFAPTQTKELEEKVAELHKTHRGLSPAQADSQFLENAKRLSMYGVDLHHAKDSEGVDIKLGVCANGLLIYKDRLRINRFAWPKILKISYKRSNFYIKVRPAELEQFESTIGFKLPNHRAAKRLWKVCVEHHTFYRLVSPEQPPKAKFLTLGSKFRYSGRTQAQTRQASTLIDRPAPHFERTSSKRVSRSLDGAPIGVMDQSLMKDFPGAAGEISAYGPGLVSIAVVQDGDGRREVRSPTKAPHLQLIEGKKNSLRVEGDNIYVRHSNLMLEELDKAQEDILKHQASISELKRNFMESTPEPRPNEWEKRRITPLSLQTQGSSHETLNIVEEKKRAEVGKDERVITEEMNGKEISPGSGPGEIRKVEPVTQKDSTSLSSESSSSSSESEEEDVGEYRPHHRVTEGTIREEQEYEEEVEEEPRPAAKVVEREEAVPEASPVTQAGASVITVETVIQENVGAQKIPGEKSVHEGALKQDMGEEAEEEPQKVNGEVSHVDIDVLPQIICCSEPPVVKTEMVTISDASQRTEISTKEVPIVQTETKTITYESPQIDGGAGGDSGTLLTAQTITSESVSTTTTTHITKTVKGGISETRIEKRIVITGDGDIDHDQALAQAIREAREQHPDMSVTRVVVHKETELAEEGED
UniProt Q9Y2J2: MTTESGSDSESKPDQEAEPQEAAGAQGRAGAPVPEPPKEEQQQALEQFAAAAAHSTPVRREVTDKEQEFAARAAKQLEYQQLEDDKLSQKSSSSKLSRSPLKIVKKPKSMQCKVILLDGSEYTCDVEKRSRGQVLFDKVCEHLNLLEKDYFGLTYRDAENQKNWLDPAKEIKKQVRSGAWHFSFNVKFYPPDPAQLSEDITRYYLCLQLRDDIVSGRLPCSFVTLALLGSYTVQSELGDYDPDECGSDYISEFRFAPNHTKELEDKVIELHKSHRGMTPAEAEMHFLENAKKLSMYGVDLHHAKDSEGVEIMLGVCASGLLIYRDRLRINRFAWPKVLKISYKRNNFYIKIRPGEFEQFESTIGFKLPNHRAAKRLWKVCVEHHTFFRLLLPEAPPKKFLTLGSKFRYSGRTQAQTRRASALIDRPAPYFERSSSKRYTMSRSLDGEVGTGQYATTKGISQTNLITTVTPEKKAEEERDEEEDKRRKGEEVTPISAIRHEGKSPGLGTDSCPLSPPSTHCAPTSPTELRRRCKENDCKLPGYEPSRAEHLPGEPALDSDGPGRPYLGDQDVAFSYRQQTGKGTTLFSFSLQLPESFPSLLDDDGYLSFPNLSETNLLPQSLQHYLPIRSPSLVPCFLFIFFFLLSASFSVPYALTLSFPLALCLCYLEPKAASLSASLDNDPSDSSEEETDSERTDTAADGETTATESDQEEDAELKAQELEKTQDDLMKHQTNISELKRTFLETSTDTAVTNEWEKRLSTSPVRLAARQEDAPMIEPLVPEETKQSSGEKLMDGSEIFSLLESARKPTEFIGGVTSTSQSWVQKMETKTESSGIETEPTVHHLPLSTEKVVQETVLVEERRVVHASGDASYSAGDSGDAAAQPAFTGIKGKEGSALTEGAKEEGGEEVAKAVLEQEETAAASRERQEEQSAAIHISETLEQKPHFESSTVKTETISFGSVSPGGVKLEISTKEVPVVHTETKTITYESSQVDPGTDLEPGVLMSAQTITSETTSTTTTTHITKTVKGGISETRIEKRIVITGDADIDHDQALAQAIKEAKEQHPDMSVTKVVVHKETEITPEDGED

Assays:
Assay in all cases: co-IP; HEK293T cells co-transfected with receptor-BioID2-HA (or BioID alone) and Myc-tagged candidate; lysis in 50 mM Tris-HCl pH 8.0, 1% NP40, 0.5% deoxycholate, 0.1% SDS, 150 mM NaCl, 5 mM EDTA; anti-HA on G-Sepharose beads, 4 °C, 4 h; anti-Myc blot; SREB1 with EPB41L2 also with 15 µM ID5217941 (no difference)
[1] = target: SREB3-BioID (human SREB3/GPR173 fused to 3×(GGGGS)-linker, BioID2 and HA tag) (human) (UniProt Q9NS66)
[2] = target: T1, CMKLR1-BioID (human CMKLR1, chemerin receptor, fused to 3×(GGGGS)-linker, BioID2 and HA tag) (human) (UniProt Q99788)
T1 sequence: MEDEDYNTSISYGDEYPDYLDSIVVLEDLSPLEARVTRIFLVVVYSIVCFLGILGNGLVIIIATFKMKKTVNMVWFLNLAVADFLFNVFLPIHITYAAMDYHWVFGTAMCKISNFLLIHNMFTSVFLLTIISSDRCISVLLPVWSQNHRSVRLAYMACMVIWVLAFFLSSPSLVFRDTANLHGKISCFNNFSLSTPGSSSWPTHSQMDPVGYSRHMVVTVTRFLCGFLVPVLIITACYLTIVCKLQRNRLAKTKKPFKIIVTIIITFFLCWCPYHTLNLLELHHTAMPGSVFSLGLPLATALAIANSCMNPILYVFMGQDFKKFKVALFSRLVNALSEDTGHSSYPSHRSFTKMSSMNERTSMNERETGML

[3] = target: SREB1-BioID (human SREB1/GPR27 fused to 3×(GGGGS)-linker, BioID2 and HA tag) (human) (UniProt Q9NS67)
[4] = target: SREB2-BioID (human SREB2/GPR85 fused to 3×(GGGGS)-linker, BioID2 and HA tag) (human) (UniProt P60893)

binding [2]: binds | binding [4]: binds
Molecule: LRBA domain 3 (1865–2576 aa), C-terminally Myc-tagged (from UniProt P50851 1865-2576) (domain or fragment)

binding [4]: no binding
B3: LRBA domain 2 (748–1864 aa), C-terminally Myc-tagged (domain or fragment, UniProt P50851 748-1864)
chain: KHLAPKRKAEVMLGHGLFSLLAERLMLQTNLITMTTYNVLFEILIEQIGTQVIHKQHPDPDSSVKIQNPQILKVIATLLRNSPQCPESMEVRRAFLSDMIKLFNNSRENRRSLLQCSVWQEWMLSLCYFNPKNSDEQKITEMVYAIFRILLYHAVKYEWGGWRVWVDTLSITHSKVTFEIHKENLANIFREQQGKVDEEIGLCSSTSVQAASGIRRDINVSVGSQQPDTKDSPVCPHFTTNGNENSSIEKTSSLESASNIELQTTNTSYEEMKAEQENQELPDEGTLEETLTNETRNADDLEVSSDIIEAVAISSNSFITTGKDSMTVSEVTASISSPSEEDASEMPEFLDKSIVEEEEDDDYVELKVEGSPTEEANLPTELQDNSLSPAASEAGEKLDMFGNDDKLIFQEGKPVTEKQTDTETQDSKDSGIQTMTASGSSAMSPETTVSQIAVESDLGQMLEEGKKATNLTRETKLINDCHGSVSEASSEQKIAKLDVSNVATDTERLELKASPNVEAPQPHRHVLEISRQHEQPGQGIAPDAVNGQRRDSRSTVFRIPEFNWSQMHQRLLTDLLFSIETDIQMWRSHSTKTVMDFVNSSDNVIFVHNTIHLISQVMDNMVMACGGILPLLSAATSATHELENIEPTQGLSIEASVTFLQRLISLVDVLIFASSLGFTEIEAEKSMSSGGILRQCLRLVCAVAVRNCLECQQHSQLKTRGDKALKPMHSLIPLGKSAAKSPVDIVTGGISPVRDLDRLLQDMDINRLRAVVFRDIEDSKQAQFLALAVVYFISVLMVSKYRDILEPQNERHSQSCTETGSENENVSLSEITPAAFSTLTTASVEESESTSSARRRDSGIGEETATGLGSHVEVTPHTAPPGVSAGPDAISEVLSTLSLEVNKSPETKNDRGNDLDTKATPSVSVSKNVNVKDILRSLVNIPADGVTVDPALLPPACLGALGDLSVEQPVQFRSFDRSVIVAAKKSAVSPSTFNTSIPTNAVSVVSSVDSAQASDMGGESPGSRSSNAKLPSVPTVDSVSQDPVSNMSITERLEHALEKAAPLLREIFVDFAPFLSRTLLGSHGQELLIEGTSLVCMKSSSSVVELVMLLCSQEWQN

Further lines, the molecule ahead of its results:

Molecule: EPB41L2-Myc (full-length EPB41L2, C-terminally Myc-tagged) (from UniProt O43491 1-1005)
binding [1]: binds | binding [2]: binds | binding [3]: binds | binding [4]: binds

Molecule: EPB41L3-Myc (full-length EPB41L3, C-terminally Myc-tagged) (from UniProt Q9Y2J2 1-1087)
binding [1]: binds

B1: LRBA domain 1 (1–747 aa), C-terminally Myc-tagged (domain or fragment, UniProt P50851 1-747)
chain: MASEDNRVPSPPPTGDDGGGGGREETPTEGGALSLKPGLPIRGIRMKFAVLTGLVEVGEVSNRDIVETVFNLLVGGQFDLEMNFIIQEGESINCMVDLLEKCDITCQAEVWSMFTAILKKSIRNLQVCTEVGLVEKVLGKIEKVDNMIADLLVDMLGVLASYNLTVRELKLFFSKLQGDKGRWPPHAGKLLSVLKHMPQKYGPDAFFNFPGKSAAAIALPPIAKWPYQNGFTFHTWLRMDPVNNINVDKDKPYLYCFRTSKGLGYSAHFVGGCLIVTSIKSKGKGFQHCVKFDFKPQKWYMVTIVHIYNRWKNSELRCYVNGELASYGEITWFVNTSDTFDKCFLGSSETADANRVFCGQMTAVYLFSEALNAAQIFAIYQLGLGYKGTFKFKAESDLFLAEHHKLLLYDGKLSSAIAFTYNPRATDAQLCLESSPKDNPSIFVHSPHALMLQDVKAVLTHSIQSAMHSIGGVQVLFPLFAQLDYRQYLSDEIDLTICSTLLAFIMELLKNSIAMQEQMLACKGFLVIGYSLEKSSKSHVSRAVLELCLAFSKYLSNLQNGMPLLKQLCDHVLLNPAIWIHTPAKVQLMLYTYLSTEFIGTVNIYNTIRRVGTVLLIMHTLKYYYWAVNPQDRSGITPKGLDGPRPNQKEMLSLRAFLLMFIKQLVMKDSGVKEDELQAILNYLLTMHEDDNLMDVLQLLVALMSEHPNSMIPAFDQRNGLRVIYKLLASKSEGIRVQALKAMGYFL
binding [4]: no binding

B2: LRBA domain 4 (2577–2863 aa), C-terminally Myc-tagged (domain or fragment, UniProt P50851 2577-2863)
chain: SNTGMHRRQITDLLDQSIQVHSQCFVITSDNRYILVCGFWDKSFRVYSTDTGRLIQVVFGHWDVVTCLARSESYIGGNCYILSGSRDATLLLWYWNGKCSGIGDNPGSETAAPRAILTGHDYEVTCAAVCAELGLVLSGSQEGPCLIHSMNGDLLRTLEGPENCLKPKLIQASREGHCVIFYENGLFCTFSVNGKLQATMETDDNIRAIQLSRDGQYLLTGGDRGVVVVRQVSDLKQLFAYPGCDAGIRAMALSYDQRCIISGMASGSIVLFYNDFNRWHHEYQTRY
binding [4]: no binding
